The whole screen tested about 3,200 compounds, of which about 75 (2%) showed an effect of 50% or more. This is one part of the list.
These compounds were tested on T1, S. aureus MSSA476. Conditions: relative growth, OD600, TSB; 25 µM; inhibitor.
T1 construct: MSSA476
Design: species or system S. aureus MSSA476 (TSB) or V. cholerae SAD30 (LB); 384-well bacterial growth screen at 25 uM, OD600 relative to DMSO control
For `COCCn1c(C)cc(C(=O)CCl)c1C` [10-D13, 2-chloro-1-[1-(2-methoxyethyl)-2,5-dimethyl-1H-pyrrol-3-yl]ethan-1-one], the “% of control remaining” value was 103.125%. In the case of `COc1ccc(-c2n[nH]cc2C=C(C#N)C(=O)Nc2ccccc2)cc1` [8-A14, 2-cyano-3-[3-(4-methoxyphenyl)-1H-pyrazol-4-yl]-N-phenylprop-2-enamide], the “% of control remaining” value is reported as 86.971%. In the case of `CC(Cl)C(=O)N1CC(=O)Nc2ccccc21` (stereo not shown) [6-E07, 4-(2-chloropropanoyl)-1,2,3,4-tetrahydroquinoxalin-2-one], the “% of control remaining” value is reported as 82.2927%. With `C=CC(=O)NCCC(=O)N1CC[S+]([O-])C(C)(C)CC1` (stereo not shown) [3-O17, N-[3-(7,7-dimethyl-1-oxo-1lambda4,4-thiazepan-4-yl)-3-oxopropyl]prop-2-enamide] the “% of control remaining” value was 100.305%. With `Cc1ccc(C=C(C#N)C(=O)NC2CC2)s1` [9-K15, 2-cyano-N-cyclopropyl-3-(5-methylthiophen-2-yl)prop-2-enamide] the “% of control remaining” value was 64.4195%. With `COCC(NC(=O)C(C)Cl)c1ccccn1` (stereo not shown) [6-B13, 2-chloro-N-[2-methoxy-1-(pyridin-2-yl)ethyl]propanamide] the “% of control remaining” value was 95.6098%. `N#CC(=Cc1ccco1)C(=O)NCCc1ccc(F)cc1F` [9-B11, 2-cyano-N-[2-(2,4-difluorophenyl)ethyl]-3-(furan-2-yl)prop-2-enamide] was tested, and the “% of control remaining” value was 93.1835%. `O=C(CCl)NCCc1cccc2ccccc12` [6-E14, 2-chloro-N-[2-(naphthalen-1-yl)ethyl]acetamide] was tested, and the “% of control remaining” value was 93.561%. For `CC(Cl)C(=O)Nc1ccc(Cl)c(C(F)(F)F)c1` (stereo not shown) [4-C12, 2-chloro-N-[4-chloro-3-(trifluoromethyl)phenyl]propanamide], the “% of control remaining” value was 121.582%. With `C=CC(=O)N1CCC(n2cc(CO)nn2)C1` (stereo not shown) [2-E08, 1-{3-[4-(hydroxymethyl)-1H-1,2,3-triazol-1-yl]pyrrolidin-1-yl}prop-2-en-1-one] the “% of control remaining” value was 118.712%. With `C=CC(=O)N(C)CC(=O)NCc1nc2cc(C)ccc2n1C` [2-B14, N-({[(1,5-dimethyl-1H-1,3-benzodiazol-2-yl)methyl]carbamoyl}methyl)-N-methylprop-2-enamide] the “% of control remaining” value was 148.303%. With `N#CC(=Cc1ccccc1)C(=O)NCc1ccc(F)cc1` [8-P10, 2-cyano-N-[(4-fluorophenyl)methyl]-3-phenylprop-2-enamide] the “% of control remaining” value was 106.556%. `C=CC(=O)N1CCC(n2cnc3ccccc3c2=O)C1` (stereo not shown) [3-C03, 3-[1-(prop-2-enoyl)pyrrolidin-3-yl]-3,4-dihydroquinazolin-4-one] was tested, and the “% of control remaining” value was 102.046%. With `CC(NC(=O)C(C#N)=Cc1ccco1)c1cccc(-n2cccn2)c1` (stereo not shown) [9-J04, 2-cyano-3-(furan-2-yl)-N-{1-[3-(1H-pyrazol-1-yl)phenyl]ethyl}prop-2-enamide] the “% of control remaining” value was 97.9775%. With `N#CC(=Cc1c(F)cccc1F)C(=O)Nc1ccccc1Cl` [9-I20, N-(2-chlorophenyl)-2-cyano-3-(2,6-difluorophenyl)prop-2-enamide] the “% of control remaining” value was 89.8876%. `CC(Cl)C(=O)N1CCC(n2nnc3c2CCCC3)CC1` (stereo not shown) [7-H17, 2-chloro-1-[4-(4,5,6,7-tetrahydro-1H-1,2,3-benzotriazol-1-yl)piperidin-1-yl]propan-1-one] was tested, and the “% of control remaining” value was 102.669%. With `C=CC(=O)N1CCOC(c2nc(C)cs2)C1` (stereo not shown) [3-A17, 1-[2-(4-methyl-1,3-thiazol-2-yl)morpholin-4-yl]prop-2-en-1-one] the “% of control remaining” value was 115.629%. For `CC(Cl)C(=O)NC1CCCc2ccccc21` (stereo not shown) [5-M19, 2-chloro-N-(1,2,3,4-tetrahydronaphthalen-1-yl)propanamide], the “% of control remaining” value was 94.3534%. In the case of `CC1CC(C(=O)CCl)CO1` (stereo not shown) [10-M13, 2-chloro-1-(5-methyloxolan-3-yl)ethan-1-one], the “% of control remaining” value is reported as 147.5%. With `N#CC(=Cc1ccccc1)C(=O)Nc1ccc(N2CCCCC2)cc1` [8-E15, 2-cyano-3-phenyl-N-[4-(piperidin-1-yl)phenyl]prop-2-enamide] the “% of control remaining” value was 111.203%. For `O=C(CCl)NCCC1=CCCCC1` [4-H05, 2-chloro-N-[2-(cyclohex-1-en-1-yl)ethyl]acetamide], the “% of control remaining” value was 101.382%. For `C=CC(=O)N(Cc1c(C)cc(Cl)cc1C)CC1COCCO1` (stereo not shown) [1-J09, N-[(4-chloro-2,6-dimethylphenyl)methyl]-N-[(1,4-dioxan-2-yl)methyl]prop-2-enamide], the “% of control remaining” value was 116.747%. `Cc1c(NC(=O)CCl)cccc1[N+](=O)[O-]` [4-E07, 2-chloro-N-(2-methyl-3-nitrophenyl)acetamide] was tested, and the “% of control remaining” value was 81.5626%. With `O=C(CCl)NC(c1ccccc1)C1CCCCC1` (stereo not shown) [6-E12, 2-chloro-N-[cyclohexyl(phenyl)methyl]acetamide] the “% of control remaining” value was 99.7073%. In the case of `C=CC(=O)Nc1cccc(-c2cn(C)nn2)c1` [1-K14, N-[3-(1-methyl-1H-1,2,3-triazol-4-yl)phenyl]prop-2-enamide], the “% of control remaining” value is reported as 102.33%. With `CC(=O)NCc1ccc(C2CCCN2C(=O)CCl)o1` (stereo not shown) [5-P13, N-({5-[1-(2-chloroacetyl)pyrrolidin-2-yl]furan-2-yl}methyl)acetamide] the “% of control remaining” value was 100.182%. `C=CC(=O)N1CCN(S(C)(=O)=O)[C@H](C)C1` [1-G15, 1-[(3R)-4-methanesulfonyl-3-methylpiperazin-1-yl]prop-2-en-1-one] was tested, and the “% of control remaining” value was 111.824%. With `CCOC(=O)c1c(NC(=O)CCl)sc(C)c1C` [4-O15, ethyl 2-(2-chloroacetamido)-4,5-dimethylthiophene-3-carboxylate] the “% of control remaining” value was 72.7966%. In the case of `CC(Cl)C(=O)Nc1ccc(F)c(Cl)c1` (stereo not shown) [4-A04, 2-chloro-N-(3-chloro-4-fluorophenyl)propanamide], the “% of control remaining” value is reported as 117.389%. With `CC(Cl)C(=O)Nc1ccc(S(=O)(=O)N2CCCCC2)cc1` (stereo not shown) [4-A12, 2-chloro-N-[4-(piperidine-1-sulfonyl)phenyl]propanamide] the “% of control remaining” value was 150.929%. With `CC(C)NC(=O)C(C#N)=Cc1cccc(Cl)c1` [9-A13, 3-(3-chlorophenyl)-2-cyano-N-(propan-2-yl)prop-2-enamide] the “% of control remaining” value was 115.955%. `COc1ccc(C=C(C#N)C(=O)Nc2cccc(C)c2)cc1` [8-M03, 2-cyano-3-(4-methoxyphenyl)-N-(3-methylphenyl)prop-2-enamide] was tested, and the “% of control remaining” value was 138.091%. `CC(Cl)C(=O)N1CCN(C(c2ccccc2)C(F)(F)F)CC1` (stereo not shown) [6-P16, 2-chloro-1-[4-(2,2,2-trifluoro-1-phenylethyl)piperazin-1-yl]propan-1-one] was tested, and the “% of control remaining” value was 82.2927%. For `Cl.Cn1ccc(-c2nc(CNC(=O)CCl)cs2)n1` [6-B09, 2-chloro-N-{[2-(1-methyl-1H-pyrazol-3-yl)-1,3-thiazol-4-yl]methyl}acetamide hydrochloride], the “% of control remaining” value was 91.5122%. `C=CC(=O)Nc1ccc(C(=O)N2C[C@H](O)C[C@H]2C(=O)OC)cc1` [2-O21, methyl (2S,4R)-4-hydroxy-1-[4-(prop-2-enamido)benzoyl]pyrrolidine-2-carboxylate] was tested, and the “% of control remaining” value was 107.572%. In the case of `O=C(CCl)C1CCCC2(CC2)C1` (stereo not shown) [10-E11, 2-chloro-1-{spiro[2.5]octan-5-yl}ethan-1-one], the “% of control remaining” value is reported as 103.438%. `Cn1nc(C(F)(F)F)cc1CN(C(=O)CCl)C1CCCC1` [5-C16, 2-chloro-N-cyclopentyl-N-{[1-methyl-3-(trifluoromethyl)-1H-pyrazol-5-yl]methyl}acetamide] was tested, and the “% of control remaining” value was 105.282%. `Cc1ccc(N(CCC#N)C(=O)CCl)cc1C` [4-A03, 2-chloro-N-(2-cyanoethyl)-N-(3,4-dimethylphenyl)acetamide] was tested, and the “% of control remaining” value was 93.7589%. `C=CC(=O)NCc1ccccc1S(=O)(=O)N1CCOCC1` [3-H22, N-{[2-(morpholine-4-sulfonyl)phenyl]methyl}prop-2-enamide] was tested, and the “% of control remaining” value was 75.2286%. `O=C(CCl)NCCCC(=O)N1CCCC1` [7-N08, 2-chloro-N-[4-oxo-4-(pyrrolidin-1-yl)butyl]acetamide] was tested, and the “% of control remaining” value was 108.32%. For `O=C1C=CC(=O)N1c1ccc(F)c(Cl)c1` [10-D15, 1-(3-chloro-4-fluorophenyl)-2,5-dihydro-1H-pyrrole-2,5-dione], the “% of control remaining” value was 109.688%. `Cc1c(C=C(C#N)C(=O)Nc2ccccn2)cc(C#N)n1C` [8-G06, 2-cyano-3-(5-cyano-1,2-dimethyl-1H-pyrrol-3-yl)-N-(pyridin-2-yl)prop-2-enamide] was tested, and the “% of control remaining” value was 98.5892%. For `Cc1cc(C)cc(N(CCC#N)C(=O)CCl)c1` [5-P18, 2-chloro-N-(2-cyanoethyl)-N-(3,5-dimethylphenyl)acetamide], the “% of control remaining” value was 95.4463%. With `COc1cc([N+](=O)[O-])ccc1N1C(=O)C=CC1=O` [10-H13, 1-(2-methoxy-4-nitrophenyl)-2,5-dihydro-1H-pyrrole-2,5-dione] the “% of control remaining” value was 101.563%. With `Cc1nc(-c2cccc(NC(=O)CCl)c2)cs1` [5-K17, 2-chloro-N-[3-(2-methyl-1,3-thiazol-4-yl)phenyl]acetamide] the “% of control remaining” value was 93.6248%. `CC(Cl)C(=O)Nc1ccc([N+](=O)[O-])cc1C#N` (stereo not shown) [5-I15, 2-chloro-N-(2-cyano-4-nitrophenyl)propanamide] was tested, and the “% of control remaining” value was 102.368%.

Source: paper PMC11995724, “Antibiotic target discovery by integrated phenotypic and activity-based profiling of electrophilic fragments” (Cell chemical biology, 2025)
